± gives the standard deviation of the averaged measurements. The list shows a part of the results.
System: PfAP2-G AP2 domain (GST-tagged)
Experiment: gcPBM binding intensity (ln(normalized median fluorescence intensity)); higher = stronger DNA binding
How it was run: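 The highest Masliner-normalised natural-log median intensity across replicate spots of either probe orientation is reported as binding intensity. GST-tagged P. falciparum DNA-binding domains expressed in E. coli were applied for 1 h to an Agilent 4 × 180k array of primer-extended double-stranded 36-bp intergenic genomic probes plus negative controls, and bound protein was detected with Alexa488 anti-GST antibody and scanned at 488 nm.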

Row | Sequence | gcPBM binding intensity (ln)
1 | ATATTTACCTTTGTATGTACATATATAAAATATATC [XGTACX_site6367] | 11.4 ± 0.79
2 | ATTGGGTACAAATACACACACATATATATATTAAGA [CACACA_site5330] | 11.2 ± 0.83
3 | AGTGTCATATTAACACGTACATAATTATTGTAGAGA [XGTACX_site568] | 11.5 ± 1
4 | TAATAAATACAAAAATGTACACACATATATATATTT [XGTACX_site7430] | 11.2 ± 0.83
5 | TATATATATATTATCACACACTCACGTTTGACAAAA [CACACA_site689] | 9.97 ± 0.18
6 | TTATTTATTTATTCATGTACGTGTATTTTTTAAAAA [XGTACX_site7915] | 11.5 ± 0.88
7 | GTGGAACATATGAACTCACACACATTTTCACTTAAA [CACACA_site3683] | 10.2 ± 0.2
8 | ATGAACATATCAATTCTCAAAATAGGATGAGAGCAT [CACACA_negctrl_site230] | 9.83 ± 0.11
9 | AATTTTTGTATTTTTAGTACTTAATTTCAAAATAAC [XGTACX_site4234] | 11.2 ± 0.6
10 | AATATTATAAATGTCACACATATATTCAAATATATA [CACACA_site4736] | 9.875 ± 0.035
11 | AAATAATGTTTGAATTGTACACATATTTGTGTTTCT [XGTACX_site4603] | 11.2 ± 0.79
12 | ATGTTGCACAGTGGAAGAATTAAAAATAAATAAATA [XGTACX_negctrl_site581] | 9.925 ± 0.035
13 | GTGGAACGTATATTTTCACACACTCTCAAAAGTACA [CACACA_site8722] | 11.1 ± 0.69
14 | TATTTTGAAACTAAAAGACATAGAGAAAACAAAAAA [CACACA_negctrl_site1306] | 10.2 ± 0.18
15 | ATATAAGGATTAATATGTACATATATATATATATTT [XGTACX_site1390] | 11.1 ± 0.67
16 | TTATGGAATAATCACGTACACACAAGAAAAAAAAAA [CACACA_site526] | 11.4 ± 0.83
17 | GACATTGATACCAGTAGTACCTATAGATGTTTGTTT [XGTACX_site5736] | 11 ± 0.47
18 | TATATACACCCACATACACACAAATAAAAAAACACC [CACACA_site3414] | 10.7 ± 0.45
19 | TTATAGAAAATGGAATAGAATGGAATGGAAGAAATA [CACACA_negctrl_site1086] | 10.1 ± 0.092
20 | ATTATATATAAGAAGAGTACTGAATATGTGCAATAT [XGTACX_site4471] | 11 ± 0.56
21 | TTGAGGAAATAACAGTGTACAAACAAATTATTACCA [XGTACX_site7082] | 11.1 ± 0.57
22 | TACATATATATATATATATATATATATATCATTATG [XGTACX_negctrl_site293] | 9.79 ± 0.24

Row | Sequence | gcPBM binding intensity (ln)
23 | TATAAAAAAAAAAAATATATATATATATAAATATAA [TGCATGCA_negctrl_site367] | 9.52 ± 0.11
24 | TAAGAAAAAAAAAAAAAAAAAAAAAAAAAAAAAAAA [CACACA_negctrl_site760] | 9.71 ± 0.22
25 | TAAAAATATTTTCATTGTACATATATATAAATATAT [XGTACX_site1123] | 10.9 ± 0.61
26 | TCACCTATTTTTAACTGTACTGAAATGATATATATA [XGTACX_site1366] | 11.3 ± 0.98
27 | TAATGAAATTGTAGTAGTACCTTCTTATAAATAAAA [XGTACX_site6747] | 10.9 ± 0.6
28 | ATTTGTTACGGACATGCATGCGAATCAGGGTATATA [TGCATGCA_site154] | 10.9 ± 0.72
29 | CAAACCTATATACAAACATGCAATCCACATATTGGT [TGCATGCA_site756] | 9.99 ± 0.13
30 | TATATTTGTATTGTTTGTACTTATATGAATTTATAT [XGTACX_site4228] | 11.2 ± 0.73
31 | TATATTAGTGTTGACACACACAAAAAAAAAAAAAAA [CACACA_site1396] | 10.3 ± 0.61
32 | ATGGTACATACATACACACACACAAAAAAAAAAAAA [CACACA_site1578] | 10.7 ± 0.79
33 | GTTCAATTTTTAGGAAGTACAAAAAAAAAAAAGAAA [XGTACX_site7286] | 11.3 ± 0.75
34 | TTTATTGACAATTTATGTACATATAATTGAAAAATA [XGTACX_site6634] | 11.4 ± 0.73
35 | TTTGTGATATTATATTGTACCCTATATTTATTATAA [XGTACX_site4240] | 11.3 ± 0.87
36 | GAATGGACGTTAGGGGGTACGTATAAAATTTATCAA [XGTACX_site683] | 11.7 ± 0.81
37 | AATATATACAATATATGTACATATATATACACATAT [XGTACX_site4190] | 11.3 ± 0.73
38 | CTTTTATTAAAATTCACACACATAAACTTTTATAAA [CACACA_site7027] | 10.1 ± 0.23
39 | CTTATATATATATCATGTACTTATGTATTTAAGAAT [XGTACX_site3307] | 11.2 ± 0.69
40 | ACAATAAAAATTTATGCATGTGAATTGAAAAAAAAA [TGCATGCA_site1037] | 9.925 ± 0.064
41 | GGAATGTAGGGTTTTACCAAAATAAAAATAACCATA [XGTACX_negctrl_site492] | 10.1 ± 0.18
42 | TATATATTTCGGTGTGCACACTTTTTATTTTTATCC [CACACA_site1726] | 10.6 ± 0.18
43 | TATATATATATATGTACACACATATATACCTTTCAT [CACACA_site2679] | 11.4 ± 0.81
44 | GTTATTGAAAAAATAGTGCAATATAACAAAGTAAAA | 10.3 ± 0.2

Row | Sequence | gcPBM binding intensity (ln)
45 | AAATAAAACAAACACACACACACATACACAAAAAAA [CACACA_site3849] | 10.2 ± 0.45
46 | ATAAAATACCTATAAACACACATATAAACAGACATA [CACACA_site7213] | 10 ± 0.18
47 | AGGAAAATACCTTAATGTACATAGAAAAGTAACATT [XGTACX_site8011] | 10.9 ± 0.57
48 | TTTTTTATTATCAAAACATGCATTTTTTAAATGGAA [TGCATGCA_site557] | 9.82 ± 0.16
49 | TTGTACGCAAAAAAAAAAAAAAAAAAATTAAAATTT [TGCATGCA_negctrl_site586] | 11.5 ± 1.1
50 | TTTTTCTCTTTAAGGTGTACAATAATACAGTAACCA [XGTACX_site300] | 11.4 ± 0.8
51 | ATATTAGTAACACAGACACACAAAAAAAAAAAAAAA [CACACA_site2176] | 10 ± 0.54
52 | CACTTAACACAAGAGTGTACACATATATATATATAT [XGTACX_site686] | 11.6 ± 0.92
53 | ACAAATAAGTTTTGTAGTACTGTGTATATATATATA [XGTACX_site6901] | 11.3 ± 0.89
54 | TTAAACCGTGGGAGCACACACACACCCCCACCCATA [CACACA_site331] | 10.8 ± 0.52
55 | TTAAGAAGTTCTAAATGTACATACATAACCACGTTA [XGTACX_site7514] | 10.9 ± 0.48
56 | ATAATATTTTCTTCTTATTGAATGCTTTAAATTTAC [CACACA_negctrl_site1273] | 9.94 ± 0.11
57 | GGGAAATATTGAAACACACACGAACGCACGTATTTC [CACACA_site6258] | 10.3 ± 0.13
58 | TATAAATATATATACACACACACATTAATACATATA [CACACA_site3488] | 10.2 ± 0.18
59 | TAATGAAATATACAGAGTACATTCTGTATATAGGAT [XGTACX_site7691] | 11 ± 0.7
60 | GCATAAGAAAATAATTGTACAATTTACATACATAAA [XGTACX_site8286] | 10.9 ± 0.54
61 | TATATATGTATATATATAAATATATATATATATATA [TGCATGCA_negctrl_site605] | 9.69 ± 0.76
62 | TACTCAAAAATTAATTAGCATAATATATATAAAAAT [GTGCAC_negctrl_site613] | 9.57 ± 0.11
63 | ACCTATGTATATTATACACACTCCAAACTATTATTT [CACACA_site1817] | 10.13 ± 0.035
64 | AAATAGTATATAATATGTACATACATAAAAATGTAT [XGTACX_site3524] | 11.2 ± 0.76
65 | CAACATTTGAGACACACACACATACAAACAAACAAA [CACACA_site7538] | 10.4 ± 0.31
66 | TATCCTATAAATAATACATGCATATATATATATATT [TGCATGCA_site638] | 9.88 ± 0.17

Row | Sequence | gcPBM binding intensity (ln)
67 | ATCAAAAAAAAAAAATTTTTTTTTTTGTTTGTTTCC [CACACA_negctrl_site1042] | 9.61 ± 0.14
68 | AAAGGTAAGCAGAATAGTACAGAAGAAAAAATATTT [XGTACX_site2941] | 11.3 ± 0.88
69 | TTTTGTTTGTTCGTGACTACATTATGTTGTAAATAC [CACACA_negctrl_site604] | 10.5 ± 0.28
70 | CCCTCTTCTCTCATATCACACATGTCATCCTTATCC [CACACA_site5078] | 10.1 ± 0.15
71 | AAGAAAATTAAATTAACACACATAAATATGTAAATA [CACACA_site6882] | 9.75 ± 0.071
72 | CCAATAATATATAGAAGTACAGAAAAAAAAAAAAAA [XGTACX_site2049] | 11.5 ± 1.1
73 | TATCGACATTTCATTTGTACATATATACATATATTT [XGTACX_site3346] | 10.6 ± 0.37
74 | TATAAATATTTATAAACACACAAATATATATATTTA [CACACA_site27] | 9.92 ± 0.042
75 | ATCAAAATGTTAAAGATACACACCTAACAAACACAA [CACACA_site955] | 10.2 ± 0.22
76 | GCACGCTGTATGAATGCACACATTCATAGAATTGCT [CACACA_site8852] | 9.9 ± 0.11
77 | TTATATATATAGAAGTGTACAAAATTTCCTAGACCT [XGTACX_site3900] | 11 ± 0.49
78 | ATTTCACAGAAACACACACACAATATATTTCCTTTT [CACACA_site3904] | 10.1 ± 0.18
79 | CCTTGAACCCCACTAACACACACACCCACGCTCAGA [CACACA_site8976] | 10.3 ± 0.33
80 | TTTCATAAATAAATATGTACATAATTAATAATAAAT [XGTACX_site5882] | 11.3 ± 0.81
81 | GAAAAATGAAGAGAACAAAATTTTATGATATATATA [GTGCAC_negctrl_site231] | 9.71 ± 0.13
82 | TATACATAGATATATACACACATATATTTATATACA [CACACA_site6328] | 9.77
83 | ATTACAAAAAAAAAAAAAAAAAAAAAAAAAAAAAAA [CACACA_negctrl_site448] | 9.76 ± 0.27
84 | ATATGTATATATATTTGTACGTAAAATGAAATCTAA [XGTACX_site213] | 11.6 ± 0.86
85 | TTAAAAATGAACATATGTACATATATATATATATAT [XGTACX_site7923] | 11.2 ± 0.55
86 | TTATCATTTTAAATCACACACATATATATATATATA [CACACA_site2849] | 10.1 ± 0.56
87 | TAACAAAACCTTATATGTACACACATATACATCACA [XGTACX_site6772] | 11.2 ± 0.63
88 | TACCTTTTATTAATGTGTACCTAAAATATAATACTT [XGTACX_site192] | 11.3 ± 0.64
